Reference: PubChem BioAssay (NCI)
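Briefly, cells in 96-well plates were exposed to five compound concentrations for 48 h, and endpoints were estimated by linear interpolation. The concentration for 50% growth inhibition is given as GI50. TGI: concentration producing complete growth inhibition.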

System: NCI-H322M lung
Test: NCI-60 cell line screen, 48 h

`COc1ccc(C(C)=C(c2ccc(OCCN3CCCCCC3)cc2)c2ccc(OCCN3CCCCCC3)cc2)cc1` showed a GI50 of 3.33 µM and a TGI of 8.38 µM.
